Assay results: PubChem BioAssay AID1508642 (National Center for Advancing Translational Sciences (NCATS), 2021)
The campaign covered roughly 43,000 compounds. About 200 (0.47%) were called active. Not shown: some 12% with an inconclusive outcome. Calls follow the shape of the dose curve; as a rule, active = well fitted cell-killing curve with a large enough effect; inconclusive = small, poorly fitted or top-dose-only effect, or effect the other way; inactive = flat fitted curve, though single readings scatter. The list shows a part of the results.
% is scaled to controls: 0 for no effect and ±100 for the full control effect.

Experiment: Cell viability qHTS assay in S16 Pmp22-F2sN cells; also: nearly all actives have a fitted effect of over 65% in size
Conditions: S16 Pmp22-F2sN Schwann cells (luciferase reporters placed in the Pmp22 gene) viability, CellTiter-Glo, 24 h; series mostly up to 57.5 µM; activity change, negative = cytotoxicity: at the top concentration
Outline: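 Luminescence from CellTiter-Glo, read by CCD camera after a 15 min room-temperature incubation, served as the viability signal. Reporter Schwann cells (S16 Pmp22-F2sN) had been treated with pin-transferred compounds for 24 h at 37C.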
In the case of `CCOc1ccc2oc(=O)cc(CN3CCN(C(=O)c4ccc(Cl)cc4)CC3)c2c1`, the “activity change, negative = cytotoxicity” value was inactive: -11.4%. With `COc1ccc(-c2nc3ccc(C(=O)NCc4ccccc4)cc3nc2-c2ccc(OC)cc2)cc1` the “activity change, negative = cytotoxicity” value was inactive: 2.99%. For `Cc1ccccc1NC(=O)c1ccccc1NC(=O)c1ccccc1F`, the “activity change, negative = cytotoxicity” value was inactive: 2.92%. With `CCCSc1nnc2c(n1)OC(CC)N(C(C)=O)c1ccccc1-2` (stereo unspecified) the “activity change, negative = cytotoxicity” value was inactive: -0.119%. In the case of `O=C(CN1C(=O)COc2ccc(S(=O)(=O)N3CCCCC3)cc21)NCCc1ccc(Cl)cc1`, the “activity change, negative = cytotoxicity” value was inactive: 9.38%. With `O=C(Nc1nnc(S(=O)(=O)N2CCCC2)s1)c1ccccc1Cl` the “activity change, negative = cytotoxicity” value was inactive: -5.5%. For `CCn1ccc2cc(S(=O)(=O)N3CCC(C(=O)NCc4ccc(OC(C)C)cc4)CC3)ccc21`, the “activity change, negative = cytotoxicity” value was inactive: 7.69%. For `COc1ccc(N2CCN(S(=O)(=O)c3c(C)nc4sc(C)cn4c3=O)CC2)cc1`, the “activity change, negative = cytotoxicity” value was inactive: 8.52%. For `COc1ccc(Cc2nc3c4cnn(-c5ccccc5Br)c4ncn3n2)cc1`, the “activity change, negative = cytotoxicity” value was inactive: -4.98%. With `CC1=C(c2ccc(C)c(C)c2)S(=O)(=O)N(Cc2ccc(C(=O)NCc3ccc(C)cc3)cc2)C1=O` the “activity change, negative = cytotoxicity” value was inactive: 6.32%. For `COC(=O)COc1ccc(Oc2nc(NC(C)(C)C)nc(N3CCOCC3)n2)nn1`, the “activity change, negative = cytotoxicity” value was inactive: 18.8%. In the case of `CCOc1ccccc1CNC(=O)Cn1nc(C)c2nn(-c3ccc(Cl)cc3)c(C)c2c1=O`, the “activity change, negative = cytotoxicity” value was inactive: -4.46%. With `O=C(CSc1nc(-c2ccccc2)cc(=O)[nH]1)Nc1ccccc1F` the “activity change, negative = cytotoxicity” value was inactive: -1.22%. With `COc1ccc(-c2cnc(NCc3ccc(C)cc3)n2C)cc1` the “activity change, negative = cytotoxicity” value was inactive: -15.9%. In the case of `CC1=C(C(=O)Nc2ccc(C)c(C)c2)C2(CCCCCC2)OC1=O`, the “activity change, negative = cytotoxicity” value was inactive: -4.31%. In the case of `COc1cc(C2NC(=O)N(C)C3=C2C(=O)N(c2ccccc2)C3)ccc1O` (stereo unspecified), the “activity change, negative = cytotoxicity” value was inactive: 5.72%. In the case of `CCC(C)NC(=O)c1sc2nc(C)c(C(=O)Nc3ccc(C)cc3C)c(-c3ccc(Br)cc3)c2c1N` (stereo unspecified), the “activity change, negative = cytotoxicity” value was inactive: -1.37%. In the case of `Cc1ccc2[nH]c(=O)c3cc(C(=O)N4CCN(c5ccccc5F)CC4)sc3c2c1`, the “activity change, negative = cytotoxicity” value was inactive: 23%. With `CCN(CC)c1nc2c(S(=O)(=O)c3ccc(C)cc3)nnn2c2ccsc12` the “activity change, negative = cytotoxicity” value was inactive: 0.504%. For `COc1ccccc1NC(=O)CSc1oc(-c2cccs2)nc1S(=O)(=O)c1ccc(C)cc1`, the “activity change, negative = cytotoxicity” value was inactive: 5.19%. For `O=C(NCc1ccccc1)c1cccc(NC(=O)N2CCSc3ncccc32)c1`, the “activity change, negative = cytotoxicity” value was inactive: -1.4%. For `COc1ccc(CCNC(=O)CSc2nc3ccccc3nc2Cc2ccc(C)cc2)cc1OC`, the “activity change, negative = cytotoxicity” value was inactive: 19.4%. With `COc1ccccc1CNC(=O)c1nn(-c2ccc(C)cc2)c(=O)c2c1c1ccccc1n2C` the “activity change, negative = cytotoxicity” value was inactive: 48.9%. In the case of `Cc1cccc(CSc2ncc(Cl)c(C(=O)Nc3sc4c(c3C#N)CCCC4)n2)c1`, the “activity change, negative = cytotoxicity” value was inactive: -0.562%. For `O=C(COc1ccc(F)cc1)NC1CC(=O)N(c2ccc3c(c2)OCCO3)C1` (stereo unspecified), the “activity change, negative = cytotoxicity” value was inactive: -2.14%. With `COc1cccc(NC(=O)C2CCN(c3cc(C)nc4c(-c5ccc(Cl)cc5)c(C)nn34)CC2)c1` the “activity change, negative = cytotoxicity” value was inactive: -2.74%. In the case of `Cc1ccc(-c2nn3c(=O)cc(CN4CCN(S(=O)(=O)c5ccc(Cl)cc5)CC4)nc3s2)cc1`, the “activity change, negative = cytotoxicity” value was inactive: -13.2%. For `COc1ccc(CNC(=O)c2ccc3c(c2)CCN3S(=O)(=O)c2ccc(Cl)cc2)cc1`, the “activity change, negative = cytotoxicity” value was inactive: -0.893%. For `CCc1ccccc1-n1c2c(cc(-c3nc(-c4ccc(Cl)cc4)cs3)c1=O)C(=O)CC(C)(C)C2`, the “activity change, negative = cytotoxicity” value was inactive: -3.57%. For `COc1ccc(Cc2nc3ccc(C(=O)NCCc4ccccc4)cc3o2)cc1`, the “activity change, negative = cytotoxicity” value was inactive: -2.84%. For `CCOC(=O)c1c(C)[nH]c(C)c1S(=O)(=O)N1CCN(c2ccc(Cl)cc2)CC1`, the “activity change, negative = cytotoxicity” value was inactive: -23.9%. With `CCOc1ccc(OCC)c(NS(=O)(=O)c2ccc3[nH]c(=O)ccc3c2)c1` the “activity change, negative = cytotoxicity” value was inactive: 11.8%. With `CC(=O)Nc1ccc(NC(=O)Cn2c(=O)ccc3cc(S(=O)(=O)N4CCC(C)CC4)ccc32)cc1` the “activity change, negative = cytotoxicity” value was inactive: -6.56%. With `CC(NC(=O)C1=Cc2ccccc2OC1)c1ccccc1` (stereo unspecified) the “activity change, negative = cytotoxicity” value was inactive: -9.32%. In the case of `COc1cc(OC)cc(-c2cc3nc(C)c(CCC(=O)Nc4ccc(F)c(Cl)c4)c(C)n3n2)c1`, the “activity change, negative = cytotoxicity” value was inactive: 3.01%. For `Cn1c(=O)cc(OCC(=O)N2CCN(c3ccc(F)cc3)CC2)c2ccccc21`, the “activity change, negative = cytotoxicity” value was inactive: 4.98%. For `CCOc1ccccc1Nc1ncnc2c1c(-c1ccccc1)cn2-c1ccc(OC)cc1`, the “activity change, negative = cytotoxicity” value was inactive: -8.94%. In the case of `CCOCN(C(=O)Cn1c(CC(C)C)nc2ccccc21)c1c(C)cccc1CC`, the “activity change, negative = cytotoxicity” value was inactive: -1.27%. With `CC(C)c1ccc(NC(=O)C(NS(=O)(=O)c2ccc3c(c2)CCC(=O)N3)c2ccccc2)cc1` (stereo unspecified) the “activity change, negative = cytotoxicity” value was inactive: -4.65%. With `Cc1ccc(-c2cn3cccnc3n2)cc1NC(=O)Cc1ccccc1` the “activity change, negative = cytotoxicity” value was inactive: -1.23%. For `O=S(=O)(c1ccccc1)c1nc(-c2ccccc2)oc1N1CCN(c2cccc(Cl)c2)CC1`, the “activity change, negative = cytotoxicity” value was inactive: 15.5%. In the case of `O=C(CSCc1cnn(-c2ccccc2)c1-n1cccc1)NCc1ccccc1Br`, the “activity change, negative = cytotoxicity” value was inactive: -2.58%. In the case of `CCc1ccc(NC(=O)COCc2cc(-c3ccc(F)cc3)on2)cc1`, the “activity change, negative = cytotoxicity” value was inactive: -3.67%. For `Cc1cc(C)cc(NC(=O)c2ncn(-c3ccccc3)n2)c1`, the “activity change, negative = cytotoxicity” value was inactive: -1.64%. In the case of `Cc1c(Cl)cccc1NC(=O)C(C)N(c1ccccc1)S(C)(=O)=O` (stereo unspecified), the “activity change, negative = cytotoxicity” value was inactive: 6.16%. For `COc1cccc(-c2nc(SCC(=O)NC3CCCC3)c(-c3ccc(F)cc3)[nH]2)c1`, the “activity change, negative = cytotoxicity” value was inactive: -24.6%. In the case of `COc1ccc(NC(=O)CN(c2ccccc2OC)S(C)(=O)=O)c(OC)c1`, the “activity change, negative = cytotoxicity” value was inactive: 14%. With `COc1cc(NC(=O)CCc2c(C)nc3c4c(C)cc(C)nc4nn3c2C)cc(OC)c1` the “activity change, negative = cytotoxicity” value was inactive: -0.503%. For `Cc1cc(C)cc(NC(=O)CCCn2nc(C)c3c(C)n(-c4ccccc4)nc3c2=O)c1`, the “activity change, negative = cytotoxicity” value was inactive: 10.4%. In the case of `COc1cc(-c2nnc(SCC(=O)Oc3ccc(C)cc3C)o2)cc(OC)c1OC`, the “activity change, negative = cytotoxicity” value was inactive: 6.02%. With `CCOC(=O)C1(C)C=C(Nc2cccc(C)c2)C(=O)N1c1ccccc1` (stereo unspecified) the “activity change, negative = cytotoxicity” value was inactive: 4.91%. With `CCOc1ccccc1NC(=O)C1=C(C)Nc2ncnn2C1c1ccccn1` (stereo unspecified) the “activity change, negative = cytotoxicity” value was inactive: 4.74%. For `CCOC(=O)CCn1cnc2onc(-c3ccccc3Cl)c2c1=O`, the “activity change, negative = cytotoxicity” value was inactive: 10.6%. With `COC(=O)c1ccc(Nc2ncnc3c2cnn3-c2ccccc2)cc1` the “activity change, negative = cytotoxicity” value was inactive: 0.876%. In the case of `COc1cc(Cl)c(C)cc1NS(=O)(=O)c1c(C)nc2sccn2c1=O`, the “activity change, negative = cytotoxicity” value was inactive: -19.8%. With `COc1ccc(C2=C(C)C(=O)N(Cc3ccc(C(=O)Nc4ccc(C)c(C)c4)cc3)S2(=O)=O)cc1` the “activity change, negative = cytotoxicity” value was inactive: 15.4%. For `Cc1cccc(-n2ncc3c(N4CCN(CCO)CC4)ncnc32)c1`, the “activity change, negative = cytotoxicity” value was inactive: 8.77%. For `Cc1ccc(Cl)cc1NC(=O)N1CCc2cc(S(=O)(=O)N3CCC(C)CC3)ccc21`, the “activity change, negative = cytotoxicity” value was inactive: 7.11%. With `O=C(Nc1nnc2n1CCS2)c1ccccc1` the “activity change, negative = cytotoxicity” value was inactive: -2.69%. For `COC(=O)c1ccc2c(=O)n(CCCCCC(=O)NC(C)C)c(=O)[nH]c2c1`, the “activity change, negative = cytotoxicity” value was inactive: -19.8%. For `Cc1cc(C)cc(NC(=O)CCS(=O)(=O)c2ccc3c(c2)oc(=O)n3C)c1`, the “activity change, negative = cytotoxicity” value was inactive: -2.88%.
